According to PubChem BioAssay AID588855 (National Center for Advancing Translational Sciences (NCATS), 2011):
In all, about 410,000 compounds went through this assay and about 5,000 (1.2%) were called active. The inconclusive results got no clear call from the source; some entries with a clear call stand among them for comparison. The call rests on the fitted dose curve; in most records, active means well fitted inhibition curve with a large enough effect; inconclusive means small, poorly fitted or top-dose-only effect; inactive means no such curve, though single readings can be large or run the other way. Potencies of inconclusive entries are doubtful fits and often do not repeat.

Experiment: qHTS for Inhibitors of TGF-b; further: nearly all actives have a fitted effect of over 65% in size
Conditions: HepG2 CAGA-GFP TGF-b/SMAD3 reporter, GFP fluorescence, 18 h, TGF-beta stimulated, 500 pg/mL final; series mostly up to 46.1 µM
Method in brief: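 Smad-responsive CAGA-GFP expression was quantified in HEPG2 cells exposed to compounds and 500 pg/mL final TGF-beta for 18 h at 37 degrees C; unstimulated wells defined full inhibition.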
Potency means the concentration at half of the fitted maximal effect; tags describe the fitted curve by direction and shape.

Compound | Potency
CCOC(=O)c1ccc(NC(=S)NNC(C)(C)C)cc1 | inconclusive: 15.8 µM [inhibitor, partial curve, poor fit]
CCOC(=O)c1ccccc1NC(=O)c1cc2c(=O)oc3ccc(C)cc3c2s1 | inactive
CC(C)c1cccc(-c2csc(C(C)(O)c3cccc(F)c3)n2)c1 (centres undefined) | inconclusive: 11.2 µM [inhibitor, partial curve, poor fit]
CC1=C(C)/C(=N/OC(=O)c2cccc([N+](=O)[O-])c2)C=CC1=O | inconclusive: 35.5 µM [inhibitor, single point]
COC(=O)c1c(Oc2ccc(C(C)=O)cc2)nnc(-c2ccccc2)c1-c1ccccc1 | inconclusive: 22.4 µM [inhibitor, single point]
CC(CCc1ccccc1)C(=O)NO (centres undefined) | inconclusive: 3.55 µM [inhibitor, single point]
Cc1ccc(-c2nnc(Nc3cccc(O)c3)c3ccccc23)cc1S(=O)(=O)N1CCN(C)CC1 | inactive
CCCCc1cc(=O)oc2c(C)c(OCC(=O)N3CCCC3)ccc12 | inconclusive: 6.31 µM [inhibitor, single point]
COc1ccc(NC(=O)c2c(NC(=O)CNCC(C)C)sc3c2CCC3)c(OC)c1 | inconclusive: 35.5 µM [inhibitor, single point]
O=C1CCN(Cc2ccccc2)CCN1[C@H](CO)c1ccccc1 | inconclusive: 17.8 µM [inhibitor, single point]
Cc1ccccc1-c1nc(-c2ccc(NC(=O)c3ccc4c(c3)OCO4)cc2)no1 | inconclusive: 15.8 µM [inhibitor, partial curve, poor fit]
CCc1cccc(CC)c1NC(=O)CN1C(=O)C(=O)c2ccccc21 | inconclusive: 35.5 µM [inhibitor, single point]
O=C(CSc1ccc(Cl)cc1)Nc1nnc(-c2ccco2)o1 | inactive
O=C(CCc1nnc(CCCCc2ccccc2)o1)N(CCO)Cc1ccccc1 | inconclusive: 3.16 µM [inhibitor, single point]
C/C(N)=C(/C#N)C(=O)CSc1nc2ccccc2[nH]1 | inactive
COc1cccc(NC(=O)CC(=O)c2ccc([N+](=O)[O-])cc2)c1 | inconclusive: 35.5 µM [inhibitor, partial curve, poor fit]
CS(=O)(=O)Nc1ccc(C2=NN(C(=O)c3ccco3)C(c3ccccc3)C2)cc1 (centres undefined) | inactive
Cc1ccc(OCc2nc3ccccc3n2CCOc2ccc(Cl)cc2)cc1 | inconclusive: 22.4 µM [inhibitor, single point]
N#C/C(=C\c1coc2ccc(O)cc2c1=O)C(=O)Nc1nc2ccccc2s1 | inconclusive: 25.1 µM [inhibitor, single point]
N#CCn1cc(/C=N/NC(=O)c2cc3c(ccc4ccccc43)o2)c2ccccc21 | inactive
Cc1ccc(/C=C/c2nc3ccccc3[nH]2)cc1 | inconclusive: 35.5 µM [inhibitor, single point]
O=[N+]([O-])c1ccc(N/N=C/c2c[nH]c3ccccc23)c(S(=O)(=O)Nc2ccc(Cl)cc2)c1 | inactive
CCN(C(=O)Cn1nc(C)c([N+](=O)[O-])c1C)c1c(N)n(Cc2ccccc2)c(=O)[nH]c1=O | inactive

Compound | Potency
CC(Oc1ccc(Br)cc1Cl)C(=O)Nc1ccncc1 (centres undefined) | inconclusive: 10 µM [inhibitor, partial curve]
CCOc1ccccc1NC(=O)c1cc2c(=O)oc3ccccc3c2s1 | inactive
O=C(c1ccc(CSc2nc3ccncc3n2Cc2cccc(F)c2)cc1)N1CCCCCC1 | inconclusive: 35.5 µM [inhibitor, single point]
Cc1ccc(NC(=O)CN2C(=O)NC(Cc3c[nH]c4ccccc34)C2=O)cc1S(=O)(=O)N1CCCCC1 (centres undefined) | active: 10 µM
Cc1cncn1CCc1nc2c3ccccc3nc(SCC(=O)Nc3cccc(Cl)c3)n2n1 | inconclusive: 35.5 µM [inhibitor, partial curve, poor fit]
COc1ccc(OC)c(NC(=O)CN2C(=O)COc3ccc(S(=O)(=O)NC4CCCC4)cc32)c1 | inactive
O=C(NCCN1CCOCC1)c1ccc(Cl)c(S(=O)(=O)N2CCCCC2)c1 | inconclusive: 5.01 µM [inhibitor, full curve, poor fit]
Cc1nc(SCC(=O)Nc2ccccc2Cl)oc1C | inactive
Cc1cccn2cc(CSc3nnc(Nc4ccc(C(C)C)cc4)s3)nc12 | inconclusive: 11.2 µM [inhibitor, partial curve, poor fit]
CCOc1ccc(S(=O)(=O)Nc2ccc3c(c2)N(C(C)=O)CCC3)cc1 | inactive
CCCN1CCC(=O)N(C(CSc2ccc(C)cc2)CC(C)C)CC1 (centres undefined) | inconclusive: 31.6 µM [inhibitor, single point]
S=C(Nc1cccc(Cl)c1Cl)N1CCCC1 | inactive
Brc1ccc(-c2cn3nc4c(nc3n2)CCCC4)cc1 | inactive
CCCCCc1c2c(cc(O)c1C(=O)O)OC(=O)c1c(cc(OC)cc1C(=O)CCCC)O2 | active: 20 µM
O=C(Cc1ccccc1)Nc1cccc(-c2cn3cccnc3n2)c1 | inactive
CC(Nc1nc(-c2ccc(F)cc2)cs1)c1nc2cc(Cl)c(N3CCCCC3)cc2n1CCOCCO (centres undefined) | inconclusive: 35.5 µM [inhibitor, single point]
Cc1ccc(Cn2c(=O)n(CCCC(=O)NCc3ccccc3Cl)c(=O)c3ccccc32)cc1 | inactive
CCn1ncc(Cl)c1C(=O)NC(=S)Nc1c(C)cc(C)cc1[N+](=O)[O-] | inactive
COc1ccc(OC)c(NC(=O)c2c(NCc3cccs3)sc3c2CCCC3)c1 | active: 15.8 µM
CCN(C(=O)CSc1n[nH]c(-c2ccccc2)n1)c1c(N)n(Cc2ccccc2)c(=O)[nH]c1=O | inactive
COCCN1C(=O)c2[nH]nc(-c3cc(C)ccc3O)c2C1c1ccc(C(C)C)cc1 (centres undefined) | inconclusive: 35.5 µM [inhibitor, single point]
CCc1ccccc1NC(=O)c1cc(S(=O)(=O)N2CCCC2)cn1C | inconclusive: 15.8 µM [inhibitor, single point]
Cc1cccc(N2CCN(C(=O)CCc3c(C)nc4ncnn4c3C)CC2)c1C | inconclusive: 11.2 µM [inhibitor, partial curve, poor fit]

Compound | Potency
Cc1cc(NC(=O)c2coc(=O)c(Br)c2)ccc1C(C)C | inconclusive: 35.5 µM [inhibitor, partial curve, poor fit]
CCCCNc1ccc(C(F)(F)F)cc1S(=O)(=O)NCCc1ccc(F)cc1 | inconclusive: 25.1 µM [inhibitor, single point]
CCC(c1nnnn1Cc1ccccc1)N1CCN(C/C=C/c2ccccc2)CC1 (centres undefined) | inconclusive: 12.6 µM [inhibitor, partial curve, poor fit]
COc1ccccc1N1C(=O)C2CC(C)=C(C)CC2C1=O (centres undefined) | inactive
COc1ccc([C@H]2Oc3cc(O)cc(O)c3C(=O)C2[C@@H]2C(=O)c3c(O)cc(O)cc3O[C@@H]2c2ccc(OC)cc2)cc1 (some centres undefined) | inconclusive: 14.1 µM [inhibitor, partial curve, poor fit]
COc1cccc(-n2nnc3c(=O)n(Cc4ccccc4Cl)cnc32)c1 | inactive
NC(=O)c1ccc2c(c1)S(=O)(=O)c1ccccc1C2=O | inactive
O=C1NC(c2cccc(Br)c2)=N/C1=C\c1ccco1 | inactive
CC(C)C(=O)Nc1nc2cc3c(cc2s1)OCO3 | inactive
CCCN(C(=O)c1noc2c1COc1ccc(C)cc1-2)c1ccc(Cl)c(Cl)c1 | inactive
Cc1cccc(C)c1OCCCN1CCOCC1 | inconclusive: 7.94 µM [inhibitor, partial curve, poor fit]
O=C(CCl)N1c2ccccc2Sc2ccc3ccccc3c21 | active: 14.1 µM
COc1cc(NC(=O)CC2C(=O)N(c3cccc(C)c3)C(=O)N2Cc2ccc(F)cc2)cc(OC)c1 (centres undefined) | inconclusive: 12.6 µM [inhibitor, single point]
O=C(NCc1nc2ccccc2[nH]1)C1=C[C@H](c2coc3ccccc3c2=O)C[C@H](OCc2ccc(CO)cc2)O1 | inconclusive: 3.98 µM [inhibitor, partial curve, poor fit]
COC(=O)C1=NN(C(=O)c2ccccc2)C(O)(c2ccc([N+](=O)[O-])cc2)C1 (centres undefined) | inconclusive: 35.5 µM [inhibitor, single point]
Cc1ccc(OCC(=O)NC2CC(C)(C)NC(C)(C)C2)cc1C | inconclusive: 3.16 µM [inhibitor, single point]
Cc1cccc(NC(=O)c2cc(-c3cc(C)cc(C)c3O)n[nH]2)c1 | inconclusive: 35.5 µM [inhibitor, single point]
Cc1cc(Br)ccc1NC(=S)Nc1cccc([N+](=O)[O-])c1 | inconclusive: 11.2 µM [inhibitor, partial curve, poor fit]
CC=CCn1c(SCCCc2ccccc2)nc2c1c(=O)[nH]c(=O)n2C | inconclusive: 11.2 µM [inhibitor, partial curve, poor fit]
Cc1c(Cl)cccc1N/C(=N/S(=O)(=O)c1cccs1)c1ccccc1 | inactive
O=[N+]([O-])c1cc(C(F)(F)F)ccc1NCCc1ccccn1 | inactive
Cc1ccc2c(c1)/C(=N/OS(=O)(=O)c1ccccc1)CCS2 | inconclusive: 0.112 µM [inhibitor, full curve, poor fit]
COc1ccc(/C=N/NC(=O)C(Cc2c[nH]c3ccccc23)NC(=O)OCC(C)C)cc1[N+](=O)[O-] (centres undefined) | inconclusive: 12.6 µM [inhibitor, single point]
